Experimental data reported in patent US20260015418A1 (ABL BIO, published 2026).

How the values were obtained:
[1] = molecular target: T1, human ROR1-Fc protein (Sino Biological, 13968-H02H1) (human, UniProt Q01973 in part); assay: DACE ELISA; 14 days in monkey serum, against day 0
T1 construct: Bought protein; also called human ROR1 protein (13968-H02H1, Fc tag)
Experimental: (§1) A 96-well microtiter plate (NUNC, 446612) was coated overnight at 4° C. with human ROR1-Fc protein (Sinobio, 13968-H02H1) at 100 ng/well in PBS. The plate was then incubated with 1% BSA buffer (1×PBS, 1% (v/v) BSA) at 200 μl/well at 37° C. for 2 hours to block non-specific binding. Thereafter, the blocking solution was discarded and fourfold dilutions of each bispecific antibody test material (starting from 100 nM) were added to the wells. The plate was incubated at 37° C. for 2 hours and then washed with PBS-T (1×PBS/0.05% (v/v) Tween-20). Subsequently, human 4-1BB-His protein (Sinobio, 10041-H08H) dissolved in 1% BSA buffer was added at 100 ng/well and incubated at 37° C. for 1 hour. After washing with PBS-T, the plate was incubated with anti-His HRP (Roche, Cat: 11965085001) at 37° C. for 1 hour. After washing, color development was performed with TMB (tetramethylbenzidine, Sigma, T0440) and the color development was stopped with 0.5M sulfuric acid (Samchun Chemicals, S1410), and the absorbance (OD) at 450-650 nm was read using a spectrophotometer. Four-parameter logistic curve analysis was performed using GraphPad software.

[2] = molecular target: T1, human ROR1-Fc protein (Sino Biological, …); assay: DACE ELISA (ROR1-Fc coated, 4-1BB-His detection); 0 day in monkey serum at 37°C
Experimental: as §1

[3] = molecular target: T1, human ROR1-Fc protein (Sino Biological, …); assay: DACE ELISA; 7 days in monkey serum, against day 0
Experimental: as §1

[4] = molecular target: T1, human ROR1-Fc protein (Sino Biological, …); assay: DACE ELISA; 0 day in human serum, against day 0
Experimental: as §1

[5] = molecular target: T1, human ROR1-Fc protein (Sino Biological, …); assay: DACE ELISA; 14 days in human serum, against day 0
Experimental: as §1

[6] = molecular target: T1, human ROR1-Fc protein (Sino Biological, …); assay: DACE ELISA (ROR1-Fc coated, 4-1BB-His detection); 7 days in monkey serum at 37°C
Experimental: as §1

[7] = molecular target: T1, human ROR1-Fc protein (Sino Biological, …); assay: DACE ELISA; 2 days in human serum, against day 0
Experimental: as §1

[8] = molecular target: T1, human ROR1-Fc protein (Sino Biological, …); assay: DACE ELISA (ROR1-Fc coated, 4-1BB-His detection); 14 days in human serum at 37°C
Experimental: as §1

[9] = molecular target: T1, human ROR1-Fc protein (Sino Biological, …); assay: DACE ELISA (ROR1-Fc coated, 4-1BB-His detection); 7 days in human serum at 37°C
Experimental: as §1

[10] = molecular target: T1, human ROR1-Fc protein (Sino Biological, …); assay: DACE ELISA (ROR1-Fc coated, 4-1BB-His detection); 14 days in monkey serum at 37°C
Experimental: as §1

[11] = molecular target: T1, human ROR1-Fc protein (Sino Biological, …); assay: DACE ELISA (ROR1-Fc coated, 4-1BB-His detection); 0 day in human serum at 37°C
Experimental: as §1

[12] = molecular target: T1, human ROR1-Fc protein (Sino Biological, …); assay: DACE ELISA; 0 day in monkey serum, against day 0
Experimental: as §1

[13] = molecular target: T1, human ROR1-Fc protein (Sino Biological, …); assay: DACE ELISA (ROR1-Fc coated, 4-1BB-His detection); 2 days in human serum at 37°C
Experimental: as §1

[14] = molecular target: T1, human ROR1-Fc protein (Sino Biological, …); assay: DACE ELISA (ROR1-Fc coated, 4-1BB-His detection); 2 days in monkey serum at 37°C
Experimental: as §1

[15] = molecular target: T1, human ROR1-Fc protein (Sino Biological, …); assay: DACE ELISA; 2 days in monkey serum, against day 0
Experimental: as §1

[16] = molecular target: human 4-1BB on Jurkat cells (Promega) (human, UniProt Q07011 24-255); assay: cell-based or functional assay
[17] = molecular target: T1, human ROR1-Fc protein (Sino Biological, …); assay: DACE ELISA; 7 days in human serum, against day 0
Experimental: as §1

T1 sequence (Q01973 30-403 limits assumed): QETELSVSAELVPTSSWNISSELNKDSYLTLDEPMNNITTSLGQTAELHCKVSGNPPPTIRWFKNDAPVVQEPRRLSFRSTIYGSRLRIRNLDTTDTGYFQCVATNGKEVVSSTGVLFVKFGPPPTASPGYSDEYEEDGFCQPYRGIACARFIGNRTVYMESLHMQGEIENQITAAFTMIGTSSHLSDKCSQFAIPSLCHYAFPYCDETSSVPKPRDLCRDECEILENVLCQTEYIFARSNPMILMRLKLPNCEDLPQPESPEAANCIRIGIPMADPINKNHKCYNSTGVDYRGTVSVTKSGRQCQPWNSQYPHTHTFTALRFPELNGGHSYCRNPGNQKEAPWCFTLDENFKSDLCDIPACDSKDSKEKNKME
UniProt Q07011, sequence (Q07011 24-255): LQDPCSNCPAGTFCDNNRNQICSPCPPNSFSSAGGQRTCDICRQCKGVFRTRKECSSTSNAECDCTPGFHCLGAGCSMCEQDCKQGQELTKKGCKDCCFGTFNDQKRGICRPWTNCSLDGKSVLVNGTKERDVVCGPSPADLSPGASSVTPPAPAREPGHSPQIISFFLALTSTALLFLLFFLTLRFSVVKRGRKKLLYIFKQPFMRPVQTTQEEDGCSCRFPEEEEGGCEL

B1: BA6x1A10M12 anti-ROR1/anti-4-1BB bispecific antibody (control with parental BA6 clone) (bispecific antibody, human IgG1, lambda)
heavy: EVQLLESGGGLVQPGGSLRLSCAASGFTFSNYDMSWVRQAPGKGLEWVSAIYHSGSSKYYADSVKGRFTISRDNSKNTLYLQMNSLRAEDTAVYYCARGGNGAWDTGFDYWGQGTLVTVSSASTKGPSVFPLAPSSKSTSGGTAALGCLVKDYFPEPVTVSWNSGALTSGVHTFPAVLQSSGLYSLSSVVTVPSSSLGTQTYICNVNHKPSNTKVDKKV[human IgG1 Fc with changes not shown]GSGSGSGSGSGSGSGSGSQSVLTQPPSASGTPGQRVTISCSGSSSNIGNNYVTWYQQLPGTAPKLLIYADSHRPSGVPDRFSGSKSGTSASLAISGLRSEDEADYYCATWDYSLSGYVFGCGTKLTVLGGGGSGGGGSGGGGSGGGGSEVQLLESGGGLVQPGGSLRLSCAASGFTFSSYDMSWVRQAPGKCLEWVSWISYSGGSIYYADSVKGRFTISRDNSKNTLYLQMNSLRAEDTAVYYCARDAQRNSMREFDYWGQGTLVTVSS
light: QSVLTQPPSASGTPGQRVTISCSGSSSNIGSNDVSWYQQLPGTAPKLLIYYDNNRPSGVPDRFSGSKSGTSASLAISGLRSEDEADYYCGAWDDSLSGYVFGGGTKLTVLGQPKAAPSVTLFPPSSEELQANKATLVCLISDFYPGAVTVAWKADSSPVKAGVETTTPSKQSNNKYAASSYLSLTPEQWKSHRSYSCQVTHEGSTVEKTVAPAECS
notes: Control bispecific; also called BA6 × 1A10M12
EC50 Ratio (%) [1]: 57% | EC50 [2]: 0.24 nM | EC50 Ratio (%) [3]: 56% | EC50 Ratio (%) [4]: 100% | EC50 Ratio (%) [5]: 50% | EC50 [6]: 0.427 nM | EC50 Ratio (%) [7]: 62% | EC50 [8]: 0.457 nM | EC50 [9]: 0.42 nM | EC50 [10]: 0.419 nM | EC50 [11]: 0.228 nM | EC50 Ratio (%) [12]: 100% | EC50 [13]: 0.365 nM | EC50 [14]: 0.36 nM | EC50 Ratio (%) [15]: 67% | EC50 (nM), 4-1BB NFκB luciferase reporter bioassay with AGS (ROR1-positive) cells [16]: 0.2 nM | EC50 (nM), 4-1BB NFκB luciferase reporter bioassay with CHOK1-ROR1 cells [16]: 0.018 nM | EC50 Ratio (%) [17]: 54%
